These are yes or no findings as the source states them, for the method shown. Binding seen in cells or lysates may run through a third protein. Some entries that bind do so weakly or less than the wild type. For some of these results: Sequences can lack the tags named with a protein.

Protein sequences, listed by entry. Tags and fused reporters are not part of them. Lines headed by an entry give the natural chain unless they say otherwise; changes in a name come on top. Residues count along the entry.
UniProt P47822: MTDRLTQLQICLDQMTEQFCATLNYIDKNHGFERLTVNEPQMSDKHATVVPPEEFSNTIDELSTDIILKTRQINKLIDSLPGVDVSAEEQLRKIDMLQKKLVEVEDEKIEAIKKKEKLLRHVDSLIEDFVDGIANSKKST
GST-Srb7Δ40: residues 41-140 of P47822
UniProt P52286: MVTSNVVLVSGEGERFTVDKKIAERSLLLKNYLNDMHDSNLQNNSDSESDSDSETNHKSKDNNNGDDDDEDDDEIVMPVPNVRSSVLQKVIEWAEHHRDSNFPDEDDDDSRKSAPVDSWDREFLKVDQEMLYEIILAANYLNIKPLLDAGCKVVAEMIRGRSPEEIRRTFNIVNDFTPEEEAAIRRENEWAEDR

Assay [1] concerns the target Srb7 fused to Cub-RUra3 (S. cerevisiae) (UniProt P47822). The experiment in a line: split reporter; Split-Ubiquitin assay in S. cerevisiae JD52: Srb7 fused to Cub-RUra3 and Nub-HA fused to Skp1 derivatives; lack of growth without uracil and growth on FOA.
In the next assay the target is GST-Srb7 (S. cerevisiae) (UniProt P47822). As to the kind of experiment: pull-down; whole-cell extracts of JD52 cells expressing the GST-Srb7 derivative in place of endogenous Srb7 and Nub-HA-Skp1, incubated with glutathione beads; five washes; Western blot with anti-HA and anti-GST. (In general: A western blot detects proteins with antibodies after separation by electrophoresis.)

Assay [2] deals with GST-Srb7Δ40 (S. cerevisiae) (UniProt P47822). The assay is described as above.
In assay [3] the target is T1, Snf1-HA3-H10 (S. cerevisiae) (UniProt P06782).
T1 sequence: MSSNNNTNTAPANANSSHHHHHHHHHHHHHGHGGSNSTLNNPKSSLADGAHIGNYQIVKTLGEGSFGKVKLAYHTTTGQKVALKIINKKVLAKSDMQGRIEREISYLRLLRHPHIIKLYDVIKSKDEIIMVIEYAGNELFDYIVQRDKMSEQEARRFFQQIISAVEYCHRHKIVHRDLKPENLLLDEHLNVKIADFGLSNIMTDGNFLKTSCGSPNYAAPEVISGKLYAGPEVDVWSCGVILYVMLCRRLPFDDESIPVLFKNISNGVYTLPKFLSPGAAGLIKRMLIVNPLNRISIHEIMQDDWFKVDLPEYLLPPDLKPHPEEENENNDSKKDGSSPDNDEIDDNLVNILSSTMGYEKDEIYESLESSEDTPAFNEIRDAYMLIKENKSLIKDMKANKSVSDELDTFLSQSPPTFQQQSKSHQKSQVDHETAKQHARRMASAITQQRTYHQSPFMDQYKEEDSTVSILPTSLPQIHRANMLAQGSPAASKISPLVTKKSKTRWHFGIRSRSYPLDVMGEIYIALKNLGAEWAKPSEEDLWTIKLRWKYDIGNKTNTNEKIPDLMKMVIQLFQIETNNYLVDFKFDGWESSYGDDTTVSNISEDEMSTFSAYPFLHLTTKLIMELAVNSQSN
As to the kind of experiment: pull-down; Snf1-HA3-H10 pulled down with Ni-beads from extracts of BY4742ΔW cells expressing HA-Gal80; cells grown with glucose or induced with galactose for 1 h; Western blot with an HA antibody.

Turning to Nub-HA-Skp1 (from UniProt P52286 1-194), the binding result is reported as “binds” in assay [1], “binds” in the assay with GST-Srb7 (S. cerevisiae) and “no binding” in assay [2].

B1: HA-Gal80 (protein, UniProt P04387 1-435)
chain: MDYNKRSSVSTVPNAAPIRVGFVGLNAAKGWAIKTHYPAILQLSSQFQITALYSPKIETSIATIQRLKLSNATAFPTLESFASSSTIDMIVIAIQVASHYEVVMPLLEFSKNNPNLKYLFVEWALACSLDQAESIYKAAAERGVQTIISLQGRKSPYILRAKELISQGYIGDINSIEIAGNGGWYGYERPVKSPKYIYEIGNGVDLVTTTFGHTIDILQYMTSSYFSRINAMVFNNIPEQELIDERGNRLGQRVPKTVPDHLLFQGTLLNGNVPVSCSFKGGKPTKKFTKNLVIDIHGTKGDLKLEGDAGFAEISNLVLYYSGTRANDFPLANGQQAPLDPGYDAGKEIMEVYHLRNYNAIVGNIHRLYQSISDFHFNTKKIPELPSQFVMQGFDFEGFPTLMDALILHRLIESVYKSNMMGSTLNVSNISHYSL
Turning to B1, in assay [3], the binding entry was “no binding”.

The values above are taken from publication PMC3313914.
